Measurements published in the supplement of paper PMC11417369.
Some of the results follow.

What follows are sequences tested on PfHDP1 homeodomain (GST-tagged) (assay: gcPBM binding intensity (ln(normalized median fluorescence intensity)); higher = stronger DNA binding).
How it was run: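 After 1 h on an Agilent 4 × 180k array of primer-extended double-stranded 36-bp intergenic genomic probes and negative controls, bound GST-tagged P. falciparum DNA-binding domains were detected with Alexa488 anti-GST antibody and scanned at 488 nm. The domains had been expressed in E. coli, and binding took place in 1× PBS with 1% milk, 0.2 mg/ml BSA, 0.5% salmon testes DNA and 0.03% Triton X-100. Binding intensity is the highest Masliner-normalised natural-log median intensity across replicate spots of either probe orientation.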

First: CATAAATGTATATAAACATGCAAGGACAGACTTTTA [TGCATGCA_site900]
Second: ATATAATTAAAAACATGTACATATATATATATATAT [XGTACX_site2882]
The “gcPBM binding intensity (ln)” value of the first is lower: 6.32 for the first, 9.26 for the second.

Compared with “AATAAATAAAAAAAAAAAAAAAAAAAAAAAAAAAAA [XGTACX_negctrl_site343]”, “TTTTTTTTTTTTGTAATACACACCACTATATGTTAT [CACACA_site1844]” is higher in “gcPBM binding intensity (ln)” value: 5.99 for the first, 6.57 for the second.

Compared with “TTCTGTTGGAATATATGTACATAATAAAAAAAAATA [XGTACX_site1741]”, “TATGGCAAAACATTCACACATATTTATATATGTGTA [CACACA_site5588]” is lower in “gcPBM binding intensity (ln)” value: 6.74 for the first, 6.22 for the second.

Going from “AGTTTTATAAAAATATGTACTTATATACACATGTAT [XGTACX_site4022]” to “TGTAGTCTGGAGAAAAGTACACAGTATCTGGTAACA [XGTACX_site2010]”, the “gcPBM binding intensity (ln)” value falls from 6.65 to 6.07.

Going from “TATTCTGGTGTAAATGCACACAGAAGAAGAAAAAAA [CACACA_site9225]” to “AAGGACACCTTCAAAACACACATACAAATAAATAGA [CACACA_site5771]”, the “gcPBM binding intensity (ln)” value falls from 8.49 to 6.86.

First: CATTTAGAATAAGGCACACATAAAGAACACTTTCCA [CACACA_site130]
Second: TTATCTTAATTGTGATTATAAAGATATTCTTTCTAT [GTGCAC_negctrl_site410]
The “gcPBM binding intensity (ln)” value of the first is higher: 6.3 for the first, 5.95 for the second.

First: CAACCTCATAATATTTAACACACAAAATTATATGTA [CACACA_site8496]
Second: TAAGTCGTTATAAGCACACACATAAATAAAAATAAA [CACACA_site1574]
The “gcPBM binding intensity (ln)” value of the first is lower: 6.23 for the first, 6.7 for the second.

Compared with “TCAATTTTTTAATGTTGTACTTTGTAAAAAAAAATA [XGTACX_site8481]”, “ATATATTTATATAGGTGTACATATTTTGCTATTCAA [XGTACX_site5199]” is higher in “gcPBM binding intensity (ln)” value: 6.2 for the first, 6.38 for the second.

Compared with “AAGGGTTATAAAAATTGTACTTTTTTTATTTTTTTT [XGTACX_site1313]”, “ATACCAAATGAATAATGTACATACGAACATACATAT [XGTACX_site1301]” is higher in “gcPBM binding intensity (ln)” value: 6.48 for the first, 6.51 for the second.

Going from “ATATTTTTAACCAAGGACACAATTCTTGTATTGTTA [CACACA_negctrl_site1326]” to “AAAAGATTAAGTAGAATAATGTTCTTTCCCAACATA [GTGCAC_negctrl_site223]”, the “gcPBM binding intensity (ln)” value falls from 6.21 to 5.77.

Going from “GTACATTGTAAGGATGGAAAAGCTAAACATTATAAT [XGTACX_negctrl_site339]” to “CCTGAACACATACATACACACACACTAATAAAAAAA [CACACA_site8023]”, the “gcPBM binding intensity (ln)” value rises from 6.69 to 7.01.

Compared with “GCCATTAATTTATACACACACATTATGATTTTTTAT [CACACA_site754]”, “AAAATGTGCCCACGCGTACACACAAAAAAAGAAAAA [CACACA_site2004]” is lower in “gcPBM binding intensity (ln)” value: 7.37 for the first, 6.13 for the second.

First: TACAAACTATGATGCACACATATATATATGTATACA [CACACA_site1226]
Second: ATGCATATGTTTATTGCACACACCAAAAAGAAAACA [CACACA_site403]
The “gcPBM binding intensity (ln)” value of the first is higher: 9.43 for the first, 9.25 for the second.

Going from “AATAATTAAAATTATCTACACACCTTTATAAATATA [CACACA_site9300]” to “AATTTAAACAAGGATCCACACACCCCAAAAAAAAAA [CACACA_site8125]”, the “gcPBM binding intensity (ln)” value rises from 6.26 to 7.06.

First: ATATATACATATATATGTACGTATATTTTTATTTCT [XGTACX_site6198]
Second: ATTTAACAACTTCAAACACACAATATAGATTTATAT [CACACA_site7067]
The “gcPBM binding intensity (ln)” value of the first is higher: 6.69 for the first, 6.6 for the second.

Going from “TATAAACCCACCTACACACACAACGTAAATGCATTG [CACACA_site2238]” to “AAAAAAAAAAAAACATGTACATAAATGTAAAAAAGT [XGTACX_site8158]”, the “gcPBM binding intensity (ln)” value falls from 6.96 to 6.62.

Compared with “AACATACACATATACACACACACATATATACATATA [CACACA_site1093]”, “AATTAAGTTAAACATTAAAAAAAACAAAAAATTAAA [CACACA_negctrl_site1333]” is lower in “gcPBM binding intensity (ln)” value: 7.65 for the first, 6.48 for the second.

First: ATTTTTTTTCTTTTTTTTTTACATTTTTTTCTTTTT [CACACA_negctrl_site1289]
Second: ACATATAAAATGTATACACACAAATATTACAGAGAT [CACACA_site4920]
The “gcPBM binding intensity (ln)” value of the first is lower: 6.17 for the first, 6.94 for the second.

First: TATAATAACAATTTAGTGCATATAATAATATTTTAT
Second: GCTTTTGAAAATATACACATGTTAGGAATACAGGGG [TGCATGCA_negctrl_site480]
The “gcPBM binding intensity (ln)” value of the first is higher: 8.78 for the first, 7.17 for the second.

Compared with “CTCATAAAAATAACGTTAACATAAATTTATTGTGAT [XGTACX_negctrl_site169]”, “TTTTCATATGAACAATGTACACATCGTATAATTCTG [XGTACX_site4756]” is lower in “gcPBM binding intensity (ln)” value: 6.95 for the first, 6.68 for the second.

Going from “TGAACAGACGAGCACACACACACATATATATATATA [CACACA_site1019]” to “ATACATATTAAAGGATGTACACTTATATTTTTTAGA [XGTACX_site5406]”, the “gcPBM binding intensity (ln)” value falls from 9.28 to 6.07.

Going from “AATATAAAACATATCACACATATGTATTTATGTATA [CACACA_site5763]” to “TATATGTCAATATCTACACACATATATATAATTATT [CACACA_site3156]”, the “gcPBM binding intensity (ln)” value rises from 6.29 to 6.43.

“TGTGGGAATAACCACACACACACACGCATATAAATA [CACACA_site7634]” was tested, and the “gcPBM binding intensity (ln)” value was 6.68.
